# Laboratory results from a collection of fitness landscapes (doi:10.1126/science.1257360).
# The list shows a part of the results.
# B1: PhoQ; a variant is named by its letters at X, in order, P23837 (parent)
# chain: MKKLLRLFFPLSLRVRFLLATAAVVLVLSLAYGMVALIGYSVSFDKTTFRLLRGESNLFYTLAKWENNKLHVELPENIDKQSPTMTLIYDENGQLLWAQRDVPWLMKMIQPDWLKSNGFHEIEADVNDTSLLLSGDHSIQQQLQEVREDDDDAEMTHSVAVNVYPATSRMPKLTIVVVDTIPVELKSSYMVWSWFIYVLSANLLLVIPLLWVAAWWSLRPIEALAKEVRELEEHNRELLNPATTRELTSLVRNLNRLLKSERERYDKYRTTLTDLTHSLKTPLXXLQXXLRSLRSEKMSVSDAEPVMLEQISRISQQIGYYLHRASMRGGTLLSRELHPVAPLLDNLTSALNKVYQRKGVNISLDISPEISFVGEQNDFVEVMGNVLDNACKYCLEFVEISARQTDEHLYIVVEDDGPGIPLSKREVIFDRGQRVDTLRPGQGVGLAVAREITEQYEGKIVAGESMLGGARMEVIFGRQHSAPKDE
# Variants of: B1
# Assay: enrichment ratio after two sorts for PhoP signalling (ratio (wild type AVST 3.29)); higher = more functional
# Conditions: with PhoP (E. coli)
row,Variant,enrichment ratio
1,VDVI,0.415
2,YFLD,≤ 0.25
3,YTDM,≤ 0.25
4,YAKD,≤ 0.25
5,QKQF,≤ 0.25
6,YGSL,≤ 0.25
7,PGTR,≤ 0.25
8,QHKP,≤ 0.25
9,TPYW,≤ 0.25
10,WVVS,≤ 0.25
11,NYWI,≤ 0.25
12,VLRN,≤ 0.25
13,TIVI,≤ 0.25
14,WDCI,≤ 0.25
15,KMQW,≤ 0.25
16,VRID,≤ 0.25
17,SYVW,≤ 0.25
18,RDHH,≤ 0.25
19,KVSR,≤ 0.25
20,HIVG,≤ 0.25
21,LGIP,≤ 0.25
22,SNNS,7.54
23,WART,≤ 0.25
24,YPQP,≤ 0.25
25,ICMV,13.2
26,FCWY,7.07

row,Variant,enrichment ratio
1,DAWA,≤ 0.25
2,ASSN,7.01
3,HISW,≤ 0.25
4,VSNI,≤ 0.25
5,ESCY,≤ 0.25
6,ISNH,≤ 0.25
7,ALCA,3.41
8,QDAA,≤ 0.25
9,QNVY,≤ 0.25
10,GTYD,≤ 0.25
11,NFLA,≤ 0.25
12,VWDH,≤ 0.25
13,HGCN,≤ 0.25
14,LKKC,≤ 0.25
15,KLRL,0.686
16,LCTA,≤ 0.25
17,NWRL,≤ 0.25
18,DQVQ,≤ 0.25
19,WWWI,≤ 0.25
20,TCNR,≤ 0.25
21,KTMT,≤ 0.25
22,RSKS,≤ 0.25
23,ICWS,≤ 0.25
24,YAQQ,≤ 0.25
25,DLIL,≤ 0.25
26,QVGP,≤ 0.25

row,Variant,enrichment ratio
1,KKDI,≤ 0.25
2,KIVQ,≤ 0.25
3,PACQ,≤ 0.25
4,ILDD,≤ 0.25
5,KLSV,≤ 0.25
6,SPYV,≤ 0.25
7,IYPF,≤ 0.25
8,ALFY,≤ 0.25
9,VYEF,≤ 0.25
10,PAEL,≤ 0.25
11,IDMK,≤ 0.25
12,SWWH,≤ 0.25
13,RLQE,≤ 0.25
14,EPRC,≤ 0.25
15,LHKP,≤ 0.25
16,LAYQ,7
17,RVSW,≤ 0.25
18,PWVP,≤ 0.25
19,WGPC,≤ 0.25
20,YQHH,≤ 0.25
21,MQYC,9.43
22,WGHK,≤ 0.25
23,WHMI,≤ 0.25
24,KGIN,≤ 0.25
25,RQKF,≤ 0.25
26,MLMV,≤ 0.25

row,Variant,enrichment ratio
1,GQDT,≤ 0.25
2,WHFN,≤ 0.25
3,VHNE,≤ 0.25
4,IECP,≤ 0.25
5,SYIE,≤ 0.25
6,RAFY,≤ 0.25
7,THFQ,≤ 0.25
8,TVTK,2.6
9,FFCV,≤ 0.25
10,TTHN,15.7
11,GIFG,≤ 0.25
12,RTQC,≤ 0.25
13,MHLM,1.26
14,GEGI,≤ 0.25
15,AVKL,≤ 0.25
16,LECM,17.2
17,YEFG,≤ 0.25
18,IRRA,≤ 0.25
19,LPEG,≤ 0.25
20,WTEK,≤ 0.25
21,YDTG,≤ 0.25
22,EDSQ,≤ 0.25
23,WSIP,0.327
24,QRCS,≤ 0.25
25,AYYN,≤ 0.25
26,HGHF,≤ 0.25

row,Variant,enrichment ratio
1,MPIL,≤ 0.25
2,QKMH,≤ 0.25
3,MHHC,≤ 0.25
4,YTST,≤ 0.25
5,QGTM,5.9
6,HSCC,1.15
7,NFVP,≤ 0.25
8,RFLY,≤ 0.25
9,QIDT,≤ 0.25
10,MMHL,1.34
11,MADA,≤ 0.25
12,RKKM,≤ 0.25
13,VRED,≤ 0.25
14,FRFN,≤ 0.25
15,RWVP,≤ 0.25
16,AHDD,≤ 0.25
17,QAKQ,≤ 0.25
18,GYCK,≤ 0.25
19,NLGQ,≤ 0.25
20,RFHA,≤ 0.25
21,RGGC,≤ 0.25
22,PDAG,≤ 0.25
23,LYSV,≤ 0.25
24,RARI,≤ 0.25
25,MDHY,0.429
26,FLPF,≤ 0.25

row,Variant,enrichment ratio
1,KTNI,≤ 0.25
2,PKYS,≤ 0.25
3,AGML,16.1
4,WVKR,≤ 0.25
5,WYEG,≤ 0.25
6,EECT,≤ 0.25
7,WPSK,≤ 0.25
8,SYRR,≤ 0.25
9,SDAG,≤ 0.25
10,QNFA,≤ 0.25
11,QELK,≤ 0.25
12,LGSL,≤ 0.25
13,TVPS,≤ 0.25
14,RSRC,≤ 0.25
15,MQCF,≤ 0.25
16,WVHM,≤ 0.25
17,MLNP,≤ 0.25
18,HSPC,≤ 0.25
19,DSLH,≤ 0.25
20,THQV,5.35
21,MAVL,2.43
22,EDLS,≤ 0.25
23,MLHC,≤ 0.25
